Results published in article PMC4336329 (PLoS ONE, 2015).
In all, about 310,000 compounds went through this assay and about 14,000 (4.5%) showed an effect of 50% or more. The effect is printed as a negative number. Some of the results follow.

Target: human ether-à-go-go-related gene (hERG) potassium channel (human, UniProt Q12809)
Test: primary screen, population patch clamp on CHO cells stably expressing hERG
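Also: peak tail current of the secondary pulse compared with the same well before compound.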

Sequence of human ether-à-go-go-related gene (hERG) potassium channel (Q12809 whole entry, looked up): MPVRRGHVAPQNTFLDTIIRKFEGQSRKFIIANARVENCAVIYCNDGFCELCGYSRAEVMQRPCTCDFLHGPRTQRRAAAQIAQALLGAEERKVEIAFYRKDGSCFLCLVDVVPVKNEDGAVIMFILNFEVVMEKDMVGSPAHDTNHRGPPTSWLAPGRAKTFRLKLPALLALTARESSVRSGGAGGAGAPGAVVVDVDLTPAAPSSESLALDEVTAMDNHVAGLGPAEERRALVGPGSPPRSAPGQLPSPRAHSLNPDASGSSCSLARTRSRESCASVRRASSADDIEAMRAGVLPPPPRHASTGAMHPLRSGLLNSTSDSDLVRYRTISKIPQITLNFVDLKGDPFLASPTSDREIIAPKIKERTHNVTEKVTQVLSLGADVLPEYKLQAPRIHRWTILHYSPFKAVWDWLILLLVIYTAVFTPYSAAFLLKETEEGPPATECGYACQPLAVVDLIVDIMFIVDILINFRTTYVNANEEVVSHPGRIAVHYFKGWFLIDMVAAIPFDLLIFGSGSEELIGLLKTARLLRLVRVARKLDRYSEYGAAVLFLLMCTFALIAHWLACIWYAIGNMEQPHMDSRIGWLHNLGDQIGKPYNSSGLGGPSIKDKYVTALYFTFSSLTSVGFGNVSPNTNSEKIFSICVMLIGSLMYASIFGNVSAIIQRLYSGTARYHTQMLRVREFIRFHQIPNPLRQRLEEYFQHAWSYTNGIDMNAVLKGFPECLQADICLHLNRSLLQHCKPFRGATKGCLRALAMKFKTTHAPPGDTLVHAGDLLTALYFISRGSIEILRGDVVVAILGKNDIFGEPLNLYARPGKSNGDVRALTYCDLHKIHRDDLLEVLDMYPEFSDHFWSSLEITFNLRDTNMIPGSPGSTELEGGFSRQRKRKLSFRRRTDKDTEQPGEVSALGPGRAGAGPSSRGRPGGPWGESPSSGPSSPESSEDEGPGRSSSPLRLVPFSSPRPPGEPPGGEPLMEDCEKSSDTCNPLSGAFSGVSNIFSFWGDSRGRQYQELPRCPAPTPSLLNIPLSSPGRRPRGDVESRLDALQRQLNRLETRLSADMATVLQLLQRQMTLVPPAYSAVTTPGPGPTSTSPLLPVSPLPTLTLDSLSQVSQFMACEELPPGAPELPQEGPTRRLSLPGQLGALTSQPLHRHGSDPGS

Point of comparison: `COc1cc(OC)c(C(=O)OCC(=O)NCCC2=CCCCC2)cc1OC`, “hERG current change (%, negative = inhibition) at 10uM” value -2.59%. Against it:
- CCn1cnc2cc(NCc3ccc(Br)cc3)ccc21 — lower, -61.3%
- CC1CN(C(=S)Nc2cccc(F)c2)CC(C)O1 (stereo not drawn) — higher, 13.9%
- CCc1ccc(NC2=NC(C(=O)NC3CCCCC3)CC(=O)N2)cc1 (stereo not drawn) — higher, 14.9%
- COc1ccc(-c2cn(CCN)c(-c3ccncc3)n2)cc1 — higher, 5.87%
- CCOC(=O)C1CCCN(Cc2cc(=O)oc3cc(C)c(C(C)C)cc23)C1 (stereo not drawn) — higher, 19.6%
- COc1ccc(NC(=O)c2ccccc2N(Cc2ccccc2)S(C)(=O)=O)cc1OC — higher, 10.8%
- Cc1nc2ncnn2c(C)c1CCC(=O)NCCc1ccccc1 — lower, -6.74%
- COc1ccccc1NS(=O)(=O)c1ccc2c(c1)NC(=O)C(C)S2 (stereo not drawn) — higher, 4.54%
- O=C(CN(C(=O)CCC(=O)Nc1nccs1)c1ccc(F)c(Cl)c1)NCc1ccco1 — lower, -7.47%
- CS(=O)(=O)N(CC(=O)Nc1ccc2c(c1)OCCO2)Cc1ccc(Cl)cc1 — lower, -9.31%
- Cc1cc(C)c(S(=O)(=O)c2ccccc2)c(OC(=O)c2cc(F)c(F)cc2Cl)n1 — higher, -0.663%
- CCn1c(=O)c(CCC(=O)NCC2CCCO2)c(C)c2c(C)nn(-c3ccc(C)cc3)c21 (stereo not drawn) — higher, 30.5%
- CC1=CC(C)(C)N(C(=O)CNC2CCCCC2)c2cc(C)ccc21.O=C(O)C(=O)O — lower, -16.3%
- CCCn1c(N2CCN(Cc3cccc(C)c3)CC2)nc2c1c(=O)[nH]c(=O)n2C — lower, -53%
- Cn1c(O)c(/C=N/NC(=O)c2cc3ccccc3cc2O)c2ccccc21 — higher, 28.8%
- COc1ccc(CCC(=O)NCCOc2ccccc2Cl)cc1 — higher, -2.07%
- COC(=O)c1coc(-c2ccc(OC)cc2)c1C(=O)OC — higher, 13.8%
- C#Cc1ccc([C@H]2C=C(C(=O)NCc3nc4ccccc4[nH]3)O[C@@H](OCc3ccc(CO)cc3)C2)cc1 — higher, -1.37%
- C=CCn1c(C)cc(C(=O)CN2NS(=O)(=O)c3ccccc3C2=O)c1C — lower, -20.8%
- CSc1nc2ccc(NC(=O)c3ccccn3)cc2s1 — higher, 11.2%
- COc1ccc(OC)c(NC(=O)C2CCCN2C(=O)OCc2ccccc2)c1 (stereo not drawn) — lower, -7.65%
- CC1(C)Cc2c(c(N3CCOCC3)nc3sc4c(N5CCOCC5)nnnc4c23)CS1 — higher, 9.81%
- COc1cc(OC)cc(C(=O)NC2CC3CCC(C2)N3C)c1 (stereo not drawn) — higher, -1.45%
